Data on 153 variants can be found in a collection of fitness landscapes (doi:10.1016/j.celrep.2020.107928).

Whole data set: some 81,000 sequences, median “one-hybrid fitness for binding parS DNA” near -0.17, cut for the highest 2% near 0.51. Some of the results follow.

The chains are these.
B1: Caulobacter ParB omega fusion; a variant is named by its letters at X, in order, B8GW30 (parent)
chain: MESVVVGEPGMSEGRRGLGRGLSALLGEVDAAPAQAPGEQLGGSREAPIEILQRNPDQPRRTFREEDLEDLSNSIREKGVLQPILVRPSPDTAGEYQIVAGERAWRAAQRAGLKTVPIMVRELDDLAVLEIGIIENVQRADLNVLEEALSYKVLMEKFERTQENIAQTIGKSXSHVANXMRLLXLPDEVQSYLVSGELTAXHARAIAAAADPVALAKQIIEGGLSVRETEALARKAPNLSAGKSKGGRPPRVKDTDTQALESDLSSVLGLDVSIDHRGSTGTLTITYATLEQLDDLCNRLTRGI

This test covers variants of B1. As to the kind of experiment: one-hybrid fitness for binding parS DNA (scaled: cognate 1, non-cognate 0); higher = stronger binding. To be noted: with parS DNA site. The essentials: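 Fitness here means the log change in variant-to-wild-type read ratio between plasmids sequenced before and after selection. That scale was set so cognate equals 1 and non-cognate equals 0. The selection was a bacterial one-hybrid screen of Caulobacter ParB libraries, four specificity codons randomised, in E. coli USO carrying a HIS3 reporter with the site 19 bp from the promoter, grown 48 hours at 37°C on M9-minus-histidine with 0.1 mM IPTG and 5 mM 3-AT.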
On to CSPN, for which the “one-hybrid fitness for binding parS DNA” value is not above 0.2.
Consider WAVM, for which the “one-hybrid fitness for binding parS DNA” value is not above 0.2.
For the variant EWRC, the “one-hybrid fitness for binding parS DNA” value was not above 0.2.
Regarding SDTL, the “one-hybrid fitness for binding parS DNA” value is not above 0.2.
For CVQR, the “one-hybrid fitness for binding parS DNA” value is not above 0.2.
Turning to IFYT, the “one-hybrid fitness for binding parS DNA” value is not above 0.2.
As for WTTQ, the “one-hybrid fitness for binding parS DNA” value is not above 0.2.
As to FPRF, the “one-hybrid fitness for binding parS DNA” value was not above 0.2.
Turning to MSIF, the “one-hybrid fitness for binding parS DNA” value was not above 0.2.
With WKNN the figure was not above 0.2; with RDRP, not above 0.2.
As to IMSR, the “one-hybrid fitness for binding parS DNA” value is not above 0.2.
As to EDYP, the “one-hybrid fitness for binding parS DNA” value is not above 0.2.
Under ACLF stands not above 0.2; under HLRR, not above 0.2.
For ISIF, the “one-hybrid fitness for binding parS DNA” value was not above 0.2.
For the variant LILE, the “one-hybrid fitness for binding parS DNA” value was not above 0.2.
Take DVTW: the “one-hybrid fitness for binding parS DNA” value is not above 0.2.
Turning to VGES, the “one-hybrid fitness for binding parS DNA” value was not above 0.2.
RWCR: the “one-hybrid fitness for binding parS DNA” value was not above 0.2.
With NIMD the figure was not above 0.2; with ASLS, not above 0.2; with IAHC, not above 0.2.
With AMKC the figure was not above 0.2; with DPLN, not above 0.2; with ITWR, not above 0.2.
Turning to MTNP, the “one-hybrid fitness for binding parS DNA” value is not above 0.2.
Turning to SAHI, the “one-hybrid fitness for binding parS DNA” value is not above 0.2.
Under SFPY stands not above 0.2.
Consider ATLY, for which the “one-hybrid fitness for binding parS DNA” value is not above 0.2.
Consider QTRV, for which the “one-hybrid fitness for binding parS DNA” value is not above 0.2.
Regarding RMPK, the “one-hybrid fitness for binding parS DNA” value was not above 0.2.
For the variant IMSF, the “one-hybrid fitness for binding parS DNA” value was not above 0.2.
For the variant WFNR, the “one-hybrid fitness for binding parS DNA” value was not above 0.2.
On to VICL, for which the “one-hybrid fitness for binding parS DNA” value is not above 0.2.
Regarding RSLH, the “one-hybrid fitness for binding parS DNA” value came out at 0.207.
For FKQG, the “one-hybrid fitness for binding parS DNA” value is not above 0.2.
As to LYKM, the “one-hybrid fitness for binding parS DNA” value was not above 0.2.
Turning to MSCN, the “one-hybrid fitness for binding parS DNA” value is not above 0.2.
On to TVAW, for which the “one-hybrid fitness for binding parS DNA” value is not above 0.2.
As for AKNF, the “one-hybrid fitness for binding parS DNA” value is not above 0.2.
For PNQN, the “one-hybrid fitness for binding parS DNA” value was not above 0.2.
For PKER, the “one-hybrid fitness for binding parS DNA” value is not above 0.2.
As for RCNK, the “one-hybrid fitness for binding parS DNA” value was not above 0.2.
Regarding AACA, the “one-hybrid fitness for binding parS DNA” value was not above 0.2.
As to LCCC, the “one-hybrid fitness for binding parS DNA” value is not above 0.2.
Under GSFG stands not above 0.2; under SPSM, not above 0.2.
As to KTLS, the “one-hybrid fitness for binding parS DNA” value was not above 0.2.
Regarding DRYY, the “one-hybrid fitness for binding parS DNA” value is not above 0.2.
For NEVN, the “one-hybrid fitness for binding parS DNA” value is not above 0.2.
Turning to DPHT, the “one-hybrid fitness for binding parS DNA” value is not above 0.2.
On to QLIT, for which the “one-hybrid fitness for binding parS DNA” value is not above 0.2.
For LVFG, the “one-hybrid fitness for binding parS DNA” value is not above 0.2.
In the case of VTLT, the “one-hybrid fitness for binding parS DNA” value was not above 0.2.
On to SYKP, for which the “one-hybrid fitness for binding parS DNA” value was not above 0.2.
For LNKA, the “one-hybrid fitness for binding parS DNA” value is not above 0.2.
With MDLY the figure was not above 0.2; with WNTR, not above 0.2; with WHLL, not above 0.2.
With WTTK the figure was not above 0.2; with TYVS, not above 0.2.
Turning to SAEV, the “one-hybrid fitness for binding parS DNA” value is not above 0.2.
Consider HSMG, for which the “one-hybrid fitness for binding parS DNA” value is not above 0.2.
As for QCKG, the “one-hybrid fitness for binding parS DNA” value is not above 0.2.
Under NYSR stands not above 0.2; under AGLV, not above 0.2; under QAYI, not above 0.2.
Regarding NGHL, the “one-hybrid fitness for binding parS DNA” value was not above 0.2.
With TAIN the figure was not above 0.2.
Under LPAY stands not above 0.2; under QINM, not above 0.2.
Take RLPQ: the “one-hybrid fitness for binding parS DNA” value is not above 0.2.
Regarding YVDY, the “one-hybrid fitness for binding parS DNA” value was not above 0.2.
Under MCKT stands not above 0.2; under EVMT, not above 0.2.
VCQM: the “one-hybrid fitness for binding parS DNA” value is not above 0.2.
On to SKGT, for which the “one-hybrid fitness for binding parS DNA” value is not above 0.2.
As for PTLP, the “one-hybrid fitness for binding parS DNA” value is not above 0.2.
For NYYL, the “one-hybrid fitness for binding parS DNA” value is not above 0.2.
As for ACPS, the “one-hybrid fitness for binding parS DNA” value was not above 0.2.
Under FNPD stands not above 0.2; under QHQK, not above 0.2.
Under AMRS stands not above 0.2; under WEWS, not above 0.2; under CMQI, not above 0.2.
With MAGS the figure was not above 0.2; with NSAT, not above 0.2.
Take GASW: the “one-hybrid fitness for binding parS DNA” value was not above 0.2.
As to DAAT, the “one-hybrid fitness for binding parS DNA” value is not above 0.2.
Under VKNL stands not above 0.2; under CSPL, not above 0.2.
Under CIWG stands not above 0.2; under FQST, not above 0.2; under DWRS, not above 0.2.
For the variant NSSP, the “one-hybrid fitness for binding parS DNA” value is not above 0.2.
For the variant QCAC, the “one-hybrid fitness for binding parS DNA” value is not above 0.2.
Take YRHL: the “one-hybrid fitness for binding parS DNA” value was not above 0.2.
As to STTI, the “one-hybrid fitness for binding parS DNA” value was not above 0.2.
Regarding ACGN, the “one-hybrid fitness for binding parS DNA” value was not above 0.2.
For the variant WRHA, the “one-hybrid fitness for binding parS DNA” value is not above 0.2.
With AYTM the figure was not above 0.2; with RKIA, 0.451; with RLTT, 0.956.
HPDY: the “one-hybrid fitness for binding parS DNA” value is not above 0.2.
For the variant VISD, the “one-hybrid fitness for binding parS DNA” value was not above 0.2.
Take IGNS: the “one-hybrid fitness for binding parS DNA” value is not above 0.2.
With HLNF, the “one-hybrid fitness for binding parS DNA” value is not above 0.2.
On to ASDG, for which the “one-hybrid fitness for binding parS DNA” value was not above 0.2.
On to GQPP, for which the “one-hybrid fitness for binding parS DNA” value is not above 0.2.
Consider FWRC, for which the “one-hybrid fitness for binding parS DNA” value is not above 0.2.
As for VEVN, the “one-hybrid fitness for binding parS DNA” value is not above 0.2.
HAEC: the “one-hybrid fitness for binding parS DNA” value was not above 0.2.
In the case of RWAN, the “one-hybrid fitness for binding parS DNA” value was 0.26.
Under SDKC stands not above 0.2.
As for YVTF, the “one-hybrid fitness for binding parS DNA” value was not above 0.2.
Under WYGT stands not above 0.2; under LSYE, not above 0.2; under YDES, not above 0.2.
Consider RDEF, for which the “one-hybrid fitness for binding parS DNA” value is not above 0.2.
As to HTSI, the “one-hybrid fitness for binding parS DNA” value is not above 0.2.
Regarding WLGS, the “one-hybrid fitness for binding parS DNA” value is not above 0.2.
With FYPY, the “one-hybrid fitness for binding parS DNA” value was not above 0.2.
As to WTAT, the “one-hybrid fitness for binding parS DNA” value was not above 0.2.
For the variant CMLS, the “one-hybrid fitness for binding parS DNA” value is not above 0.2.
Take TPDA: the “one-hybrid fitness for binding parS DNA” value is not above 0.2.
Take GCRR: the “one-hybrid fitness for binding parS DNA” value is not above 0.2.
Take FTWS: the “one-hybrid fitness for binding parS DNA” value is not above 0.2.
As to TCQC, the “one-hybrid fitness for binding parS DNA” value is not above 0.2.
For NNLL, the “one-hybrid fitness for binding parS DNA” value is not above 0.2.
Under DLCA stands not above 0.2.
Regarding HDML, the “one-hybrid fitness for binding parS DNA” value was not above 0.2.
For the variant GFGR, the “one-hybrid fitness for binding parS DNA” value is not above 0.2.
Under KYDC stands not above 0.2; under SAVT, not above 0.2.
In the case of VMMF, the “one-hybrid fitness for binding parS DNA” value is not above 0.2.
Turning to WWSA, the “one-hybrid fitness for binding parS DNA” value was not above 0.2.
Regarding PKHQ, the “one-hybrid fitness for binding parS DNA” value is not above 0.2.
As to RLMA, the “one-hybrid fitness for binding parS DNA” value was 0.613.
Under CPSI stands not above 0.2; under VRVN, not above 0.2.
Take ANIR: the “one-hybrid fitness for binding parS DNA” value is not above 0.2.
As to LAFR, the “one-hybrid fitness for binding parS DNA” value was not above 0.2.
For the variant KERG, the “one-hybrid fitness for binding parS DNA” value was not above 0.2.
For QAIR, the “one-hybrid fitness for binding parS DNA” value is not above 0.2.
With IKHR the figure was not above 0.2; with KTGL, not above 0.2; with RITT, 0.931.
With RDLM, the “one-hybrid fitness for binding parS DNA” value was not above 0.2.
For WDAC, the “one-hybrid fitness for binding parS DNA” value is not above 0.2.
As for SDAE, the “one-hybrid fitness for binding parS DNA” value was not above 0.2.
As to STLR, the “one-hybrid fitness for binding parS DNA” value was not above 0.2.
With MTEW the figure was not above 0.2.
